# In patent publication US20210238308A1 (Chugai, published 2021):
# T1: PRYSPRY domain of human TRIM21 with N-terminal 6xHis tag (human)
# T1 construct: Expressed in E. coli; also called hTRIM21; human TRIM21.PRYSPRY
# T1 chain: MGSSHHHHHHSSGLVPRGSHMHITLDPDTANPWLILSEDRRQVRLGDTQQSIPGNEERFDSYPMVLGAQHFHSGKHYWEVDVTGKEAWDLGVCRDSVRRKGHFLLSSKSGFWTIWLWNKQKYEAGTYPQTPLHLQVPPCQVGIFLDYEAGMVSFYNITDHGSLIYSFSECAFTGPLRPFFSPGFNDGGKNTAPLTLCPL
# T2: PRYSPRY domain of mouse TRIM21 with N-terminal 6xHis tag (mouse)
# T2 construct: Expressed in E. coli; also called mTRIM21; mouse TRIM21.PRYSPRY
# T2 chain: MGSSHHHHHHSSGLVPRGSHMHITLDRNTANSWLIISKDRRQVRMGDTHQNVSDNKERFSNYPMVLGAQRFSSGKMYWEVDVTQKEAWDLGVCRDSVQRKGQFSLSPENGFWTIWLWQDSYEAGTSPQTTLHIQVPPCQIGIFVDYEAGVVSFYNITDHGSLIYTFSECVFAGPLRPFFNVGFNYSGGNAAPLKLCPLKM
# B1: MRAH-G1d/MRAL-KT0 N315R (antibody, human IgG1, kappa)
# heavy: QVQLQESGPGLVRPSQTLSLTCTVSGYSITSDHAWSWVRQPPGRGLEWIGYISYSGITTYNPSLKSRVTMLRDTSKNQFSLRLSSVTAADTAVYYCARSLARTTAMDYWGQGSLVTVSS[human IgG1 constant region with N315R (EU numbers) omitted here]
# light: DIQMTQSPSSLSASVGDRVTITCRASQDISSYLNWYQQKPGKAPKLLIYYTSRLHSGVPSRFSGSGSGTDFTFTISSLQPEDIATYYCQQGNTLPYTFGQGTKVEIKRTVAAPSVFIFPPSDEQLKSGTASVVCLLNNFYPREAKVQWKVDNALQSGNSQESVTEQDSKDSTYSLSSTLTLSKADYEKHKVYACEVTHQGLSSPVTKSFNRGEC
# notes: copies: 2 + 2
# B2: MRAH-G1d/MRAL-KT0 N434K (antibody, human IgG1, kappa)
# heavy: QVQLQESGPGLVRPSQTLSLTCTVSGYSITSDHAWSWVRQPPGRGLEWIGYISYSGITTYNPSLKSRVTMLRDTSKNQFSLRLSSVTAADTAVYYCARSLARTTAMDYWGQGSLVTVSS[human IgG1 constant region with N434K (EU numbers) omitted here]
# light: B1 light
# notes: copies: 2 + 2
# B3: MRAH-G1d/MRAL-KT0 N434V (antibody, human IgG1, kappa)
# heavy: QVQLQESGPGLVRPSQTLSLTCTVSGYSITSDHAWSWVRQPPGRGLEWIGYISYSGITTYNPSLKSRVTMLRDTSKNQFSLRLSSVTAADTAVYYCARSLARTTAMDYWGQGSLVTVSS[human IgG1 constant region with N434V (EU numbers) omitted here]
# light: B1 light
# notes: copies: 2 + 2
# B4: MRAH-G1d/MRAL-KT0 N315Y (antibody, human IgG1, kappa)
# heavy: QVQLQESGPGLVRPSQTLSLTCTVSGYSITSDHAWSWVRQPPGRGLEWIGYISYSGITTYNPSLKSRVTMLRDTSKNQFSLRLSSVTAADTAVYYCARSLARTTAMDYWGQGSLVTVSS[human IgG1 constant region with N315Y (EU numbers) omitted here]
# light: B1 light
# notes: copies: 2 + 2
# B5: MRAH-G1d/MRAL-KT0 Q311S (antibody, human IgG1, kappa)
# heavy: QVQLQESGPGLVRPSQTLSLTCTVSGYSITSDHAWSWVRQPPGRGLEWIGYISYSGITTYNPSLKSRVTMLRDTSKNQFSLRLSSVTAADTAVYYCARSLARTTAMDYWGQGSLVTVSS[human IgG1 constant region with Q311S (EU numbers) omitted here]
# light: B1 light
# notes: copies: 2 + 2
# B6: MRAH-G1d/MRAL-KT0 Q311D (antibody, human IgG1, kappa)
# heavy: QVQLQESGPGLVRPSQTLSLTCTVSGYSITSDHAWSWVRQPPGRGLEWIGYISYSGITTYNPSLKSRVTMLRDTSKNQFSLRLSSVTAADTAVYYCARSLARTTAMDYWGQGSLVTVSS[human IgG1 constant region with Q311D (EU numbers) omitted here]
# light: B1 light
# notes: copies: 2 + 2
# B7: MRAH-G1d/MRAL-KT0 Q311K (antibody, human IgG1, kappa)
# heavy: QVQLQESGPGLVRPSQTLSLTCTVSGYSITSDHAWSWVRQPPGRGLEWIGYISYSGITTYNPSLKSRVTMLRDTSKNQFSLRLSSVTAADTAVYYCARSLARTTAMDYWGQGSLVTVSS[human IgG1 constant region with Q311K (EU numbers) omitted here]
# light: B1 light
# notes: copies: 2 + 2
# B8: MRAH-G1d/MRAL-KT0 Q311L (antibody, human IgG1, kappa)
# heavy: QVQLQESGPGLVRPSQTLSLTCTVSGYSITSDHAWSWVRQPPGRGLEWIGYISYSGITTYNPSLKSRVTMLRDTSKNQFSLRLSSVTAADTAVYYCARSLARTTAMDYWGQGSLVTVSS[human IgG1 constant region with Q311L (EU numbers) omitted here]
# light: B1 light
# notes: copies: 2 + 2
# B9: MRAH-G1d/MRAL-KT0 N434D (antibody, human IgG1, kappa)
# heavy: QVQLQESGPGLVRPSQTLSLTCTVSGYSITSDHAWSWVRQPPGRGLEWIGYISYSGITTYNPSLKSRVTMLRDTSKNQFSLRLSSVTAADTAVYYCARSLARTTAMDYWGQGSLVTVSS[human IgG1 constant region with N434D (EU numbers) omitted here]
# light: B1 light
# notes: copies: 2 + 2
# B10: MRAH-G1d/MRAL-KT0 N434I (antibody, human IgG1, kappa)
# heavy: QVQLQESGPGLVRPSQTLSLTCTVSGYSITSDHAWSWVRQPPGRGLEWIGYISYSGITTYNPSLKSRVTMLRDTSKNQFSLRLSSVTAADTAVYYCARSLARTTAMDYWGQGSLVTVSS[human IgG1 constant region with N434I (EU numbers) omitted here]
# light: B1 light
# notes: copies: 2 + 2
# B11: MRAH-G1d/MRAL-KT0 N315T (antibody, human IgG1, kappa)
# heavy: QVQLQESGPGLVRPSQTLSLTCTVSGYSITSDHAWSWVRQPPGRGLEWIGYISYSGITTYNPSLKSRVTMLRDTSKNQFSLRLSSVTAADTAVYYCARSLARTTAMDYWGQGSLVTVSS[human IgG1 constant region with N315T (EU numbers) omitted here]
# light: B1 light
# notes: copies: 2 + 2
# B12: MRAH-G1d/MRAL-KT0 N434M (antibody, human IgG1, kappa)
# heavy: QVQLQESGPGLVRPSQTLSLTCTVSGYSITSDHAWSWVRQPPGRGLEWIGYISYSGITTYNPSLKSRVTMLRDTSKNQFSLRLSSVTAADTAVYYCARSLARTTAMDYWGQGSLVTVSS[human IgG1 constant region with N434M (EU numbers) omitted here]
# light: B1 light
# notes: copies: 2 + 2
# B13: MRAH-G1d/MRAL-KT0 N315W (antibody, human IgG1, kappa)
# heavy: QVQLQESGPGLVRPSQTLSLTCTVSGYSITSDHAWSWVRQPPGRGLEWIGYISYSGITTYNPSLKSRVTMLRDTSKNQFSLRLSSVTAADTAVYYCARSLARTTAMDYWGQGSLVTVSS[human IgG1 constant region with N315W (EU numbers) omitted here]
# light: B1 light
# notes: copies: 2 + 2
# B14: MRAH-G1d/MRAL-KT0 N315V (antibody, human IgG1, kappa)
# heavy: QVQLQESGPGLVRPSQTLSLTCTVSGYSITSDHAWSWVRQPPGRGLEWIGYISYSGITTYNPSLKSRVTMLRDTSKNQFSLRLSSVTAADTAVYYCARSLARTTAMDYWGQGSLVTVSS[human IgG1 constant region with N315V (EU numbers) omitted here]
# light: B1 light
# notes: copies: 2 + 2
# Target: T1, PRYSPRY domain of human TRIM21 with …
# Assay: SPR, Protein L capture
row,hTRIM21 binding level ratio (variant/control antibody),Binder
1,1.18,B1
2,-0.026,B2
3,0.388,B3
4,0.941,B4
5,1.21,B5
6,0.345,B6
7,0.791,B7
8,0.562,B8
9,0.037,B9
10,0.632,B10
11,1.07,B11
12,0.824,B12
13,0.982,B13
14,1.19,B14

# Target: T2, PRYSPRY domain of mouse TRIM21 with …
# Assay: SPR, Protein L capture
row,mTRIM21 binding level ratio (variant/control antibody),Binder
1,2.97,B1
2,-0.234,B2
3,0.101,B3
4,2.45,B4
5,2.67,B5
6,1.03,B6
7,2.98,B7
8,1.97,B8
9,-0.151,B9
10,0.569,B10
11,2.44,B11
12,0.771,B12
13,2.38,B13
14,2.51,B14

# Target: T3, human FcRn (human, UniProt P55899 partial chain; P61769 partial chain, limits assumed)
# T3 construct: also called hFcRn
# Assay: SPR, Protein L capture
row,hFcRn binding level ratio (variant/control antibody),Binder
1,0.13,B1
2,0.15,B2
3,0.84,B3
4,0.06,B4
5,0.83,B5
6,0.67,B6
7,1.01,B7
8,1.15,B8
9,0.04,B9
10,0.03,B10
11,0.78,B11
12,0.27,B12
13,0.95,B13
14,0.92,B14
